# Where “and” joins values, the source holds several entries; their conditions need not be identical. Equal values may be shown once. About 300 (0.091%) of roughly 330,000 compounds were called active. Inconclusive results, whose numbers are uncertain, are shown with a selection of clear calls. Calls follow the shape of the dose curve; as a rule, active = well fitted inhibition curve with a large enough effect; inconclusive = small, poorly fitted or top-dose-only effect, or effect the other way, or another doubt; inactive = no such curve, though single readings can be large or run the other way. Potencies of inconclusive entries are left out as doubtful fits.
# Target: Lysosomal acid glucosylceramidase (Homo sapiens) (UniProt P04062)
# Experiment: qHTS Assay for Inhibitors and Activators of N370S glucocerebrosidase as a Potential Chaperone Treatment of Gaucher Disease;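 as to activity change, negative = inhibition: 0% = full enzyme activity and -100% = no enzyme basal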
# Conditions: N370S GC spleen homogenate, 4MU-glucoside fluorescence; activity change, negative = inhibition: at 59.4 µM (top of the series) unless noted
# Potency is read from the fitted curve at half-maximal effect.
SMILES,Potency,"activity change, negative = inhibition"
CC(Cc1ccccc1)C(=O)NCc1nc2ccccc2s1 (stereo unspecified),"inconclusive [activator, full curve, poor fit]",
CC1CN(c2ccccc2)NC1=O (stereo unspecified),,inconclusive: 34.1% [activator]
CSc1nsc(NC(=O)OCc2ccc(Cl)cc2)n1,inactive,
Cc1ccc(S(=O)(=O)/N=C2\C=C(Nc3cccc(C(=O)O)c3)C(=O)c3ccccc32)c(C)c1,"inconclusive [activator, single point]",
CC(=O)Oc1oc(-c2ccccc2)nc1/C=N/c1ccccn1,inactive,
COCCNc1nc(N)c([N+](=O)[O-])c(NCC2CCCO2)n1 (stereo unspecified),inactive,
O=c1[nH]cnc2sc3c(c12)CN(Cc1ccccc1)CC3,"inconclusive [activator, single point]",
O=C(CCCOc1ccc(Cl)cc1)N1CCCCCC1,,inconclusive: 27.8% [activator]
CC(C)c1ccc(-c2csc3ncnc(N4CCN(C)CC4)c23)cc1,"inconclusive [inhibitor, single point]",
CCCN1C(=O)/C(=C/c2ccc(N3CCCC3)c(C)c2)NC1=S,inactive,
COCCNC(=O)C1(C(F)(F)F)C/C(=C\Cc2ccccc2)CCCO1 (stereo unspecified),inactive,
O=C(CNC(=S)N(CCCN1CCOCC1)Cc1cccs1)NC1CCCCCCC1,active: 3.98 µM,
CC(=O)Oc1ccc(C2=NN(c3ccccc3)C(c3ccccc3)C2)cc1 (stereo unspecified),"inconclusive [activator, partial curve]",
O=C(O)c1cccc(Nc2nc(-c3cccnc3)nc3ccccc23)c1,"inconclusive [inhibitor, partial curve]",
COc1ccc(CC(=O)Nc2cccc(-c3nnc(-c4ccccc4)o3)c2)cc1OC,"inconclusive [activator, partial curve]",
COc1ccc(CNC(=O)C2CCN(c3nccs3)CC2)cc1,inactive,
CCOC(=O)c1c(CSc2ccsc2)n(C)c2cc(Br)c(O)c(CN(C)C)c12,inactive,
COCCCNC(=S)N(Cc1ccccc1)Cc1ccc(F)cc1,"inconclusive [inhibitor, partial curve]",
CCOC(=O)c1cc2ccc(OC(=O)c3ccco3)cc2oc1=O,"inconclusive [activator, partial curve]",
Cc1csc(SCC(=O)Nc2cc(C(C)(C)C)nn2-c2ccccc2)n1,"inconclusive [activator, single point]",
CN(Cc1ccco1)c1nc(-c2ccoc2)nc2ccccc12,"inconclusive [inhibitor, single point]",
COc1ccc2c3n(nc2c1)CCN=C3c1cc(Cl)c(N)c(Cl)c1,"inconclusive [inhibitor, partial curve]",

SMILES,Potency,"activity change, negative = inhibition"
O=C1CC(N2CCN(c3ccc(O)cc3)CC2)C(=O)N1c1ccc2c(c1)OCO2 (stereo unspecified),inactive,
CO[C@@H]1COC(=O)[C@H]2CCCN2C(=O)C/C=C\[C@@H](C)[C@H](OC)COC(=O)[C@H]2CCCN2C(=O)C/C=C\[C@H]1C,,inactive: 2.01% [at 12.8 µM]
COc1ccc(NC(=S)NC(=O)c2ccccc2Cl)cc1,inactive,
Cc1nccn1-c1c([N+](=O)[O-])c(=O)n(C)c2ccccc12,inactive,
O=C(CSc1ncnc2c1oc1ccccc12)Nc1cccc(C(F)(F)F)c1,inactive,
CN(Cc1nc(Cc2cccc(F)c2)no1)CC1COCCO1 (stereo unspecified),"inconclusive [inhibitor, single point]",
CCN(CC)CCCn1c(SCC(=O)Nc2cccc(F)c2)nnc1-c1ccoc1C,"inconclusive [inhibitor, single point]",
Cc1ccc(S(=O)(=O)c2c(N)n(CCC(C)C)c3nc4ccccc4nc23)cc1,"inconclusive [activator, partial curve]",
Cc1occc1-c1nnc(-c2cc([N+](=O)[O-])cc([N+](=O)[O-])c2)o1,,inconclusive: 30.3% [activator]
COc1ccc(N(CC(=O)NCc2ccc(C)cc2)S(=O)(=O)c2c(C)[nH]c(=O)[nH]c2=O)cc1,active: 8.91 µM,
Cc1cccc(CNc2cc(-c3ccc(N(C)C)cc3)ncn2)c1,"inconclusive [activator, partial curve]",
COc1cc(S(=O)(=O)N2CCCCC2)ccc1NC=O,"inconclusive [activator, partial curve]",
Fc1ccc(/C=N/Nc2nc(-c3cccnc3)nc3ccccc23)cc1,"inconclusive [inhibitor, single point]",
Cc1nc(SCC(=O)c2cccs2)c2oc3ccccc3c2n1,"inconclusive [activator, single point]",
O=c1c(Cl)c(Nc2cccc(Cl)c2)cnn1-c1nc2ccccc2s1,inactive,
COc1ccc(-c2cc3c(=O)n(CC(=O)NCCCN4CCC(N5CCCCC5)CC4)ncn3n2)cc1,"inconclusive [activator, single point]",
COc1cccc(-c2nc(NCc3ccc(OC)cc3OC)c3ccccc3n2)c1,"inconclusive [inhibitor, partial curve, poor fit]",
Cc1ccc(S(=O)(=O)N2CCN=C2SCc2ccc(Cl)c(Cl)c2)cc1,inactive,
CCn1c(SCC(=O)Nc2c(C)n(C)n(-c3ccccc3)c2=O)nc2c1c(=O)n(C)c(=O)n2C,"inconclusive [inhibitor, single point]",
COC(=O)c1ccc(OC)c(CSc2nnc(-c3ccc(C(C)(C)C)cc3)o2)c1,"inconclusive [activator, single point]",
N#CCCn1c(=O)c(-c2ccc(Cl)cc2)nc2cnc(N3CCNCC3)nc21,"inconclusive [activator, partial curve]",
O=c1[nH]c2cc([N+](=O)[O-])c([N+](=O)[O-])cc2[nH]c1=O,active: 12.6 µM and active: 14.1 µM and active: 8.91 µM,

SMILES,Potency,"activity change, negative = inhibition"
CCCCC1CC1C(=O)Nc1ncc2c(n1)CC(C)(C)CC2=O (stereo unspecified),"inconclusive [activator, single point]",
CCOc1ccc(S(=O)(=O)NC(C)(C)C)cc1-c1nc2c(C(C)(C)C)nn(C)c2c(=O)[nH]1,"inconclusive [activator, partial curve]",
Cc1cccc(C2=NN(c3ccccc3)[C@H](CO)[C@H]2c2ccc(Cl)cc2)c1,"inconclusive [activator, partial curve]",
CCN(CC)S(=O)(=O)c1ccc(N2CCOCC2)c(NC(=O)c2cc(-c3ccccn3)nc3ccccc23)c1,inactive,
Clc1ccc(OCc2nn3c(-c4ccco4)nnc3s2)cc1,"inconclusive [activator, partial curve, poor fit]",
COc1cc(C2NC(=O)NC(C)=C2C(=O)OCC2CCCO2)cc(OC)c1OC (stereo unspecified),inactive,
O=c1cc(-c2ccc(O)cc2)oc2ccc(O)cc12,"inconclusive [inhibitor, partial curve]",
Cc1ncc(CO)c2c1Oc1nc(-c3ccccc3)nc(SCC(=O)N(C)c3ccccc3)c1C2,"inconclusive [inhibitor, partial curve]",
Cc1ccc(-n2c3c(cc(C(=O)NCc4ccco4)c2=O)C(=O)CC(C)(C)C3)cc1,"inconclusive [activator, partial curve]",
COC(=O)C1=C(C(=O)c2ccc(C)cc2)C(c2ccccc2)n2nnnc2N1 (stereo unspecified),"inconclusive [inhibitor, partial curve]",
COc1ccccc1NC(=O)C1CCCN1S(=O)(=O)c1cccc2nsnc12 (stereo unspecified),"inconclusive [inhibitor, single point]",
CC(=O)Oc1ccc2c3c(c(=O)oc2c1)CCCC3,"inconclusive [activator, partial curve]",
Cn1c(C(=O)NC2CCCCC2)cc2c(=O)n3ccccc3nc21,"inconclusive [activator, partial curve]",
Cc1nc(COc2cc3oc(=O)cc(C)c3cc2Cl)cs1,"inconclusive [activator, partial curve]",
OCC1(Cc2ccccc2C(F)(F)F)CCN(Cc2ccccc2)CC1,"inconclusive [inhibitor, partial curve]",
Cc1ccc(NC(=S)NCc2ccccc2Cl)c(C)c1,"inconclusive [activator, single point]",
CCOC(=O)[C@H]1[C@H]2COc3ccc(Cl)cc3[C@@H]2N2C(=O)c3cc(Br)ccc3NC(=O)[C@@]12C,"inconclusive [activator, partial curve]",
COC(=O)CNS(=O)(=O)c1ccc(Cc2ccc(S(=O)(=O)NCC(=O)OC)cc2)cc1,"inconclusive [activator, partial curve, poor fit]",
COc1ccc(Cn2c(O)c(C=Nc3ccc(O)cc3)c3ccccc3c2=O)cc1,"inconclusive [inhibitor, partial curve]",
COc1ccc(/C=N/NC(=S)Nc2cc(C(F)(F)F)ccc2Cl)cc1,"inconclusive [inhibitor, single point]",
CCOC(=O)Cc1cnc(NC(=O)NC(C(=O)OCC)(c2ccccc2)C(F)(F)F)s1 (stereo unspecified),"inconclusive [activator, single point]",
CC1CCN(c2oc(-c3cccc4ccccc34)nc2C#N)CC1,"inconclusive [activator, partial curve]",

# From PubChem BioAssay AID2101 (National Center for Advancing Translational Sciences (NCATS), 2009)
